In the supplement of paper PMC8728848:
The other results are listed elsewhere or left out.

What was measured:
Experiment in all cases: glycan array binding signal (z-score within array); higher = stronger binding
Details in all cases: glycan notation: IUPAC condensed, linker removed
[1] = target: Gal(b1-3)[Fuc(a1-4)]GlcNAc(b1-3)Gal(b1-4)[Fuc(a1-3)]GlcNAc
Procedure, shortened: (§1)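 The binding signal is a Z-score computed within each array and averaged over linkers. Arrays of the same protein sequence at different concentrations or buffers were also averaged together. Data originate from 3228 arrays in the Consortium for Functional Glycomics database, kept only where the protein sequence was available.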

[2] = target: Gal(b1-3)[GlcNAc(b1-6)]GalNAc
Procedure, shortened: as §1

[3] = target: Gal(b1-3)[Neu5Ac(a2-6)]GalNAc
Procedure, shortened: as §1

[4] = target: Gal(b1-3)[Neu5Ac(a2-6)]GlcNAc(b1-6)Gal(b1-4)Glc
Procedure, shortened: as §1

[5] = target: Gal(b1-3)[Neu5Ac(b2-6)]GalNAc
Procedure, shortened: as §1

[6] = target: Gal(b1-4)GalNAc(a1-3)[Fuc(a1-2)]Gal(b1-4)GlcNAc
Procedure, shortened: as §1

[7] = target: Gal(b1-4)GalNAc(b1-3)[Fuc(a1-2)]Gal(b1-4)GlcNAc
Procedure, shortened: as §1

[8] = target: Gal(b1-4)Glc
Procedure, shortened: as §1

[9] = target: Gal(b1-4)Glc6S
Procedure, shortened: as §1

[10] = target: Gal(b1-4)GlcNAc
Procedure, shortened: as §1

[11] = target: Gal(b1-4)GlcNAc(b1-2)Man(a1-3)[Gal(b1-4)GlcNAc(b1-2)Man(a1-6)]Man(b1-4)GlcNAc(b1-4)GlcNAc
Procedure, shortened: as §1

[12] = target: Gal(b1-4)GlcNAc(b1-3)Gal(b1-4)Glc
Procedure, shortened: as §1

[13] = target: Gal(b1-4)GlcNAc(b1-3)Gal(b1-4)GlcNAc
Procedure, shortened: as §1

[14] = target: Gal(b1-4)GlcNAc(b1-3)Gal(b1-4)GlcNAc(b1-3)Gal(b1-4)GlcNAc
Procedure, shortened: as §1

[15] = target: Gal(b1-4)GlcNAc(b1-3)Gal(b1-4)[Fuc(a1-3)]GlcNAc(b1-3)Gal(b1-4)[Fuc(a1-3)]GlcNAc
Procedure, shortened: as §1

[16] = target: Gal(b1-4)GlcNAc(b1-3)GalNAc
Procedure, shortened: as §1

[17] = target: Gal(b1-4)GlcNAc(b1-3)[Gal(b1-4)GlcNAc(b1-6)]GalNAc
Procedure, shortened: as §1

[18] = target: Gal(b1-4)GlcNAc(b1-6)Gal(b1-4)GlcNAc(b1-6)GalNAc
Procedure, shortened: as §1

[19] = target: Gal(b1-4)GlcNAc(b1-6)GalNAc
Procedure, shortened: as §1

[20] = target: Gal(b1-4)GlcNAc(b1-6)[Gal(b1-3)]GalNAc
Procedure, shortened: as §1

[21] = target: Gal3S(b1-3)GalNAc
Procedure, shortened: as §1

[22] = target: Gal3S(b1-3)GlcNAc
Procedure, shortened: as §1

[23] = target: Gal3S(b1-3)[Fuc(a1-4)]GlcNAc
Procedure, shortened: as §1

[24] = target: Gal3S(b1-4)Glc
Procedure, shortened: as §1

[25] = target: Gal3S(b1-4)Glc6S
Procedure, shortened: as §1

[26] = target: Gal3S(b1-4)GlcNAc
Procedure, shortened: as §1

[27] = target: Gal3S(b1-4)GlcNAc6S
Procedure, shortened: as §1

[28] = target: Gal3S6S(b1-4)GlcNAc
Procedure, shortened: as §1

[29] = target: Gal3S6S(b1-4)GlcNAc6S
Procedure, shortened: as §1

[30] = target: Gal4S(b1-4)GlcNAc
Procedure, shortened: as §1

[31] = target: Gal4S6S(b1-4)GlcNAc
Procedure, shortened: as §1

[32] = target: Gal6S(b1-4)Glc
Procedure, shortened: as §1

[33] = target: Gal6S(b1-4)Glc6S
Procedure, shortened: as §1

[34] = target: Gal6S(b1-4)GlcNAc
Procedure, shortened: as §1

[35] = target: GalNAc(a1-3)Gal
Procedure, shortened: as §1

[36] = target: GalNAc(a1-3)GalNAc
Procedure, shortened: as §1

[37] = target: GalNAc(b1-3)Gal(a1-4)Gal(b1-4)GlcNAc
Procedure, shortened: as §1

[38] = target: GalNAc(b1-3)GalNAc
Procedure, shortened: as §1

[39] = target: GalNAc(b1-4)GlcNAc
Procedure, shortened: as §1

[40] = target: Glc(a1-4)Glc
Procedure, shortened: as §1

[41] = target: Glc(a1-6)Glc(a1-6)Glc
Procedure, shortened: as §1

[42] = target: Glc(b1-4)Glc
Procedure, shortened: as §1

[43] = target: Glc(b1-6)Glc
Procedure, shortened: as §1

[44] = target: GlcA(b1-3)Gal
Procedure, shortened: as §1

[45] = target: GlcA(b1-6)Gal
Procedure, shortened: as §1

[46] = target: GlcNAc(a1-3)Gal(b1-4)GlcNAc
Procedure, shortened: as §1

[47] = target: GlcNAc(a1-6)Gal(b1-4)GlcNAc
Procedure, shortened: as §1

[48] = target: GlcNAc(b1-2)Gal(b1-3)GalNAc
Procedure, shortened: as §1

[49] = target: GlcNAc(b1-2)Man(a1-3)[GlcNAc(b1-2)Man(a1-6)]Man(b1-4)GlcNAc(b1-4)GlcNAc
Procedure, shortened: as §1

[50] = target: GlcNAc(b1-3)Gal
Procedure, shortened: as §1

[51] = target: GlcNAc(b1-3)Gal(b1-3)GalNAc
Procedure, shortened: as §1

[52] = target: GlcNAc(b1-3)Gal(b1-4)Glc
Procedure, shortened: as §1

[53] = target: GlcNAc(b1-3)Gal(b1-4)GlcNAc
Procedure, shortened: as §1

[54] = target: GlcNAc(b1-3)Gal(b1-4)GlcNAc(b1-3)Gal(b1-4)GlcNAc
Procedure, shortened: as §1

[55] = target: GlcNAc(b1-3)GalNAc
Procedure, shortened: as §1

[56] = target: GlcNAc(b1-3)[GlcNAc(b1-6)]Gal(b1-4)GlcNAc
Procedure, shortened: as §1

[57] = target: GlcNAc(b1-3)[GlcNAc(b1-6)]GalNAc
Procedure, shortened: as §1

[58] = target: GlcNAc(b1-3)[GlcNAc(b1-6)]GlcNAc(b1-4)GlcNAc
Procedure, shortened: as §1

[59] = target: GlcNAc(b1-4)Gal(b1-4)GlcNAc
Procedure, shortened: as §1

[60] = target: GlcNAc(b1-4)GlcNAc(b1-4)GlcNAc
Procedure, shortened: as §1

[61] = target: GlcNAc(b1-4)GlcNAc(b1-4)GlcNAc(b1-4)GlcNAc(b1-4)GlcNAc
Procedure, shortened: as §1

[62] = target: GlcNAc(b1-4)GlcNAc(b1-4)GlcNAc(b1-4)GlcNAc(b1-4)GlcNAc(b1-4)GlcNAc
Procedure, shortened: as §1

[63] = target: GlcNAc(b1-4)[GlcNAc(b1-6)]GalNAc
Procedure, shortened: as §1

[64] = target: GlcNAc(b1-6)Gal(b1-4)GlcNAc
Procedure, shortened: as §1

[65] = target: GlcNAc(b1-6)GalNAc
Procedure, shortened: as §1

[66] = target: Kdn(a2-3)Gal(b1-3)GlcNAc
Procedure, shortened: as §1

[67] = target: Kdn(a2-3)Gal(b1-4)GlcNAc
Procedure, shortened: as §1

B1: FaeGad (Escherichia coli) (protein)
chain: WMTGDFNGSVDIGGSITADDYRQKWEWEVGTGLNGFGSVLNDLTNGGTKLTITVTGNKPILLGRTKEAFATPVTSGVDGIPHIAFTDYEGASVELRNPDGETEKGLTYFVLPMKNAEGTKVGSVKVNASYAGALGRGGVTSADGELMSLFAEGSHAIFYGGLPTNVKNSELKGGSAAAARTELFGSLSKNDILGQIQRVNANITSLVNVPGSFNENMAYTDGSVVSVAYALGIANGQTIEATFNQAVTTSTQWSAPLNVAITYY
glycan array binding signal (z-score) [1]: 0.979 | glycan array binding signal (z-score) [2]: 0.41 | glycan array binding signal (z-score) [3]: 0.2 | glycan array binding signal (z-score) [4]: -0.216 | glycan array binding signal (z-score) [5]: 0.159 | glycan array binding signal (z-score) [6]: -0.241 | glycan array binding signal (z-score) [7]: -0.333 | glycan array binding signal (z-score) [8]: 0.496 | glycan array binding signal (z-score) [9]: 0.601 | glycan array binding signal (z-score) [10]: -0.194 | glycan array binding signal (z-score) [11]: -0.426 | glycan array binding signal (z-score) [12]: 0.629 | glycan array binding signal (z-score) [13]: -0.425 | glycan array binding signal (z-score) [14]: -0.197 | glycan array binding signal (z-score) [15]: -0.343 | glycan array binding signal (z-score) [16]: -0.214 | glycan array binding signal (z-score) [17]: -0.405 | glycan array binding signal (z-score) [18]: -0.211 | glycan array binding signal (z-score) [19]: 0.098 | glycan array binding signal (z-score) [20]: 0.025 | glycan array binding signal (z-score) [21]: 0.169 | glycan array binding signal (z-score) [22]: -0.003 | glycan array binding signal (z-score) [23]: -0.196 | glycan array binding signal (z-score) [24]: -0.052 | glycan array binding signal (z-score) [25]: 0.221 | glycan array binding signal (z-score) [26]: -0.267 | glycan array binding signal (z-score) [27]: -0.132 | glycan array binding signal (z-score) [28]: -0.184 | glycan array binding signal (z-score) [29]: -0.108 | glycan array binding signal (z-score) [30]: -0.292 | glycan array binding signal (z-score) [31]: 0.008 | glycan array binding signal (z-score) [32]: 0.008 | glycan array binding signal (z-score) [33]: 0.404 | glycan array binding signal (z-score) [34]: -0.187 | glycan array binding signal (z-score) [35]: 0.087 | glycan array binding signal (z-score) [36]: 0.055 | glycan array binding signal (z-score) [37]: -0.382 | glycan array binding signal (z-score) [38]: 0.344 | glycan array binding signal (z-score) [39]: -0.065 | glycan array binding signal (z-score) [40]: 9.55 | glycan array binding signal (z-score) [41]: 10.2 | glycan array binding signal (z-score) [42]: 3.57 | glycan array binding signal (z-score) [43]: 0.855 | glycan array binding signal (z-score) [44]: 0.661 | glycan array binding signal (z-score) [45]: 0.915 | glycan array binding signal (z-score) [46]: 0.188 | glycan array binding signal (z-score) [47]: 0.421 | glycan array binding signal (z-score) [48]: 0.133 | glycan array binding signal (z-score) [49]: 0.315 | glycan array binding signal (z-score) [50]: 0.318 | glycan array binding signal (z-score) [51]: 0 | glycan array binding signal (z-score) [52]: 0.043 | glycan array binding signal (z-score) [53]: -0.351 | glycan array binding signal (z-score) [54]: -0.317 | glycan array binding signal (z-score) [55]: 0.323 | glycan array binding signal (z-score) [56]: 0.156 | glycan array binding signal (z-score) [57]: 0.813 | glycan array binding signal (z-score) [58]: 0.871 | glycan array binding signal (z-score) [59]: 0.141 | glycan array binding signal (z-score) [60]: 0.137 | glycan array binding signal (z-score) [61]: 0.157 | glycan array binding signal (z-score) [62]: 0.048 | glycan array binding signal (z-score) [63]: 0.25 | glycan array binding signal (z-score) [64]: 0.327 | glycan array binding signal (z-score) [65]: 0.514 | glycan array binding signal (z-score) [66]: -0.278 | glycan array binding signal (z-score) [67]: -0.283
